This is one part of the list.
The sequences below were run against T1, MBP-FoxP1dN (Mus musculus, UniProt P58462 326-579) (assay: PD-seq (MBP pull-down with sequencing); 20 mM Tris-HCl pH 7.5, 100 mM NaCl, 1.5 mM MgCl2, 0.4 uM protein, 0.1 uM dsDNA library, 30 min, room temperature, amylose pull-down; high values mean tight binding). Details: protein: recombinant; tags: His6-MBP; chain copies: 2; dsDNA, one strand shown.
T1 sequence: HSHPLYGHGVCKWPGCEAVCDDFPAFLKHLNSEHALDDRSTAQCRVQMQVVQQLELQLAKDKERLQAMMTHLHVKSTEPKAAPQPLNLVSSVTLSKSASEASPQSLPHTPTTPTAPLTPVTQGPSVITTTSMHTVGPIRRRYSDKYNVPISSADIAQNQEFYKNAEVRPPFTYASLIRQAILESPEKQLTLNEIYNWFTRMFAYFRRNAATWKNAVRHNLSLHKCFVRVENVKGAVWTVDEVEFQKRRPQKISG
Procedure, shortened: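 Amylose resin was used to capture complexes formed during 30 min at room temperature in Tris pH 7.5 buffer with NaCl and MgCl2 between 0.4 µM His6-MBP-tagged mouse FoxP3 or FoxP1 fragment lacking the N-terminus, expressed in E. coli, and 0.1 µM Klenow-filled double-stranded degenerate DNA library. After three washes, the DNA was released with proteinase K, barcoded by PCR and sequenced on Illumina. Binding is pooled-replicate reads-per-million enrichment, pull-down over input.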

| Sequence | binding signal |
| --- | --- |
| GATGATTGTTCTCCCAGCTGATGAATTAGGAATTTCGAGTAAACAAATTTTCCTAATCTTTCTGTTCAAGCGCCATCTAC | 0.923 RPM ratio (pull-down/input) |
| GATGATTGTTCTCCCAGCTGATGAATTGGGCCGATCGAGTAAACAAATTTTCCTAATCTTTCTGTTCAAGCGCCATCTAC | 0.818 RPM ratio (pull-down/input) |
| GATGATTGTTCTCCCAGCTGATGAATTAGTACCATCGAGTAAACAAATTTTCCTAATCTTTCTGTTCAAGCGCCATCTAC | 1.11 RPM ratio (pull-down/input) |
| GATGATTGTTCTCCCAGCTGATGAATTCACGTCGTCGAGTAAACAAATTTTCCTAATCTTTCTGTTCAAGCGCCATCTAC | 0.801 RPM ratio (pull-down/input) |
| GATGATTGTTCTCCCAGCTGATGAATTAATCGCGTCGAGTAAACAAATTTTCCTAATCTTTCTGTTCAAGCGCCATCTAC | 1.01 RPM ratio (pull-down/input) |
| GATGATTGTTCTCCCAGCTGATGAATTAACAACGTCGAGTAAACAAATTTTCCTAATCTTTCTGTTCAAGCGCCATCTAC | 1.16 RPM ratio (pull-down/input) |
| GATGATTGTTCTCCCAGCTGATGAATTAAGGGCTTCGAGTAAACAAATTTTCCTAATCTTTCTGTTCAAGCGCCATCTAC | 0.874 RPM ratio (pull-down/input) |
| GATGATTGTTCTCCCAGCTGATGAATTCTCCCCCTCGAGTAAACAAATTTTCCTAATCTTTCTGTTCAAGCGCCATCTAC | 0.816 RPM ratio (pull-down/input) |
| GATGATTGTTCTCCCAGCTGATGAATTTCTGGATTCGAGTAAACAAATTTTCCTAATCTTTCTGTTCAAGCGCCATCTAC | 0.863 RPM ratio (pull-down/input) |
| GATGATTGTTCTCCCAGCTGATGAATTGTACTCGTCGAGTAAACAAATTTTCCTAATCTTTCTGTTCAAGCGCCATCTAC | 0.916 RPM ratio (pull-down/input) |
| GATGATTGTTCTCCCAGCTGATGAATTTGATATATCGAGTAAACAAATTTTCCTAATCTTTCTGTTCAAGCGCCATCTAC | 0.995 RPM ratio (pull-down/input) |
| GATGATTGTTCTCCCAGCTGATGAATTGACGATGTCGAGTAAACAAATTTTCCTAATCTTTCTGTTCAAGCGCCATCTAC | 1.09 RPM ratio (pull-down/input) |
| GATGATTGTTCTCCCAGCTGATGAATTTAGGCTATCGAGTAAACAAATTTTCCTAATCTTTCTGTTCAAGCGCCATCTAC | 0.955 RPM ratio (pull-down/input) |
| GATGATTGTTCTCCCAGCTGATGAATTGCGATGTTCGAGTAAACAAATTTTCCTAATCTTTCTGTTCAAGCGCCATCTAC | 1.14 RPM ratio (pull-down/input) |
| GATGATTGTTCTCCCAGCTGATGAATTAGCCAGATCGAGTAAACAAATTTTCCTAATCTTTCTGTTCAAGCGCCATCTAC | 0.835 RPM ratio (pull-down/input) |
| GATGATTGTTCTCCCAGCTGATGAATTAGATAGTTCGAGTAAACAAATTTTCCTAATCTTTCTGTTCAAGCGCCATCTAC | 0.938 RPM ratio (pull-down/input) |
| GATGATTGTTCTCCCAGCTGATGAATTCTGCTTGTCGAGTAAACAAATTTTCCTAATCTTTCTGTTCAAGCGCCATCTAC | 1.19 RPM ratio (pull-down/input) |
| GATGATTGTTCTCCCAGCTGATGAATTAAATCCTTCGAGTAAACAAATTTTCCTAATCTTTCTGTTCAAGCGCCATCTAC | 0.91 RPM ratio (pull-down/input) |
| GATGATTGTTCTCCCAGCTGATGAATTGGTGCTTTCGAGTAAACAAATTTTCCTAATCTTTCTGTTCAAGCGCCATCTAC | 1.3 RPM ratio (pull-down/input) |
| GATGATTGTTCTCCCAGCTGATGAATTCTAGACATCGAGTAAACAAATTTTCCTAATCTTTCTGTTCAAGCGCCATCTAC | 1.04 RPM ratio (pull-down/input) |
| GATGATTGTTCTCCCAGCTGATGAATTGGGTTTGTCGAGTAAACAAATTTTCCTAATCTTTCTGTTCAAGCGCCATCTAC | 1.06 RPM ratio (pull-down/input) |

| Sequence | binding signal |
| --- | --- |
| GATGATTGTTCTCCCAGCTGATGAATTTCATGATTCGAGTAAACAAATTTTCCTAATCTTTCTGTTCAAGCGCCATCTAC | 0.981 RPM ratio (pull-down/input) |
| GATGATTGTTCTCCCAGCTGATGAATTAGGCGGATCGAGTAAACAAATTTTCCTAATCTTTCTGTTCAAGCGCCATCTAC | 0.908 RPM ratio (pull-down/input) |
| GATGATTGTTCTCCCAGCTGATGAATTGTCGAGGTCGAGTAAACAAATTTTCCTAATCTTTCTGTTCAAGCGCCATCTAC | 0.934 RPM ratio (pull-down/input) |
| GATGATTGTTCTCCCAGCTGATGAATTGCTCGATTCGAGTAAACAAATTTTCCTAATCTTTCTGTTCAAGCGCCATCTAC | 1.06 RPM ratio (pull-down/input) |
| GATGATTGTTCTCCCAGCTGATGAATTCACAGGTTCGAGTAAACAAATTTTCCTAATCTTTCTGTTCAAGCGCCATCTAC | 0.792 RPM ratio (pull-down/input) |
| GATGATTGTTCTCCCAGCTGATGAATTCGTAGAGTCGAGTAAACAAATTTTCCTAATCTTTCTGTTCAAGCGCCATCTAC | 0.749 RPM ratio (pull-down/input) |
| GATGATTGTTCTCCCAGCTGATGAATTACCTGCATCGAGTAAACAAATTTTCCTAATCTTTCTGTTCAAGCGCCATCTAC | 1.16 RPM ratio (pull-down/input) |
| GATGATTGTTCTCCCAGCTGATGAATTAGGTGCTTCGAGTAAACAAATTTTCCTAATCTTTCTGTTCAAGCGCCATCTAC | 0.948 RPM ratio (pull-down/input) |
| GATGATTGTTCTCCCAGCTGATGAATTCATGCTTTCGAGTAAACAAATTTTCCTAATCTTTCTGTTCAAGCGCCATCTAC | 1.28 RPM ratio (pull-down/input) |
| GATGATTGTTCTCCCAGCTGATGAATTATGAAAATCGAGTAAACAAATTTTCCTAATCTTTCTGTTCAAGCGCCATCTAC | 1.18 RPM ratio (pull-down/input) |
| GATGATTGTTCTCCCAGCTGATGAATTCAGGGGATCGAGTAAACAAATTTTCCTAATCTTTCTGTTCAAGCGCCATCTAC | 0.773 RPM ratio (pull-down/input) |
| GATGATTGTTCTCCCAGCTGATGAATTGTTAACGTCGAGTAAACAAATTTTCCTAATCTTTCTGTTCAAGCGCCATCTAC | 1.09 RPM ratio (pull-down/input) |
| GATGATTGTTCTCCCAGCTGATGAATTAGGGATGTCGAGTAAACAAATTTTCCTAATCTTTCTGTTCAAGCGCCATCTAC | 0.827 RPM ratio (pull-down/input) |
| GATGATTGTTCTCCCAGCTGATGAATTGACCCGTTCGAGTAAACAAATTTTCCTAATCTTTCTGTTCAAGCGCCATCTAC | 0.907 RPM ratio (pull-down/input) |
| GATGATTGTTCTCCCAGCTGATGAATTAAATTTGTCGAGTAAACAAATTTTCCTAATCTTTCTGTTCAAGCGCCATCTAC | 1.06 RPM ratio (pull-down/input) |
| GATGATTGTTCTCCCAGCTGATGAATTAAGTCCTTCGAGTAAACAAATTTTCCTAATCTTTCTGTTCAAGCGCCATCTAC | 0.887 RPM ratio (pull-down/input) |
| GATGATTGTTCTCCCAGCTGATGAATTGAATATTTCGAGTAAACAAATTTTCCTAATCTTTCTGTTCAAGCGCCATCTAC | 0.952 RPM ratio (pull-down/input) |
| GATGATTGTTCTCCCAGCTGATGAATTATGTGCATCGAGTAAACAAATTTTCCTAATCTTTCTGTTCAAGCGCCATCTAC | 1.45 RPM ratio (pull-down/input) |
| GATGATTGTTCTCCCAGCTGATGAATTCGCGTGGTCGAGTAAACAAATTTTCCTAATCTTTCTGTTCAAGCGCCATCTAC | 0.928 RPM ratio (pull-down/input) |
| GATGATTGTTCTCCCAGCTGATGAATTTCGTTCATCGAGTAAACAAATTTTCCTAATCTTTCTGTTCAAGCGCCATCTAC | 0.901 RPM ratio (pull-down/input) |
| GATGATTGTTCTCCCAGCTGATGAATTTCGTCCCTCGAGTAAACAAATTTTCCTAATCTTTCTGTTCAAGCGCCATCTAC | 0.846 RPM ratio (pull-down/input) |

| Sequence | binding signal |
| --- | --- |
| GATGATTGTTCTCCCAGCTGATGAATTCTGCAGCTCGAGTAAACAAATTTTCCTAATCTTTCTGTTCAAGCGCCATCTAC | 0.831 RPM ratio (pull-down/input) |
| GATGATTGTTCTCCCAGCTGATGAATTGCGTACCTCGAGTAAACAAATTTTCCTAATCTTTCTGTTCAAGCGCCATCTAC | 1.09 RPM ratio (pull-down/input) |
| GATGATTGTTCTCCCAGCTGATGAATTTTTAGCCTCGAGTAAACAAATTTTCCTAATCTTTCTGTTCAAGCGCCATCTAC | 0.907 RPM ratio (pull-down/input) |
| GATGATTGTTCTCCCAGCTGATGAATTCGGAGCATCGAGTAAACAAATTTTCCTAATCTTTCTGTTCAAGCGCCATCTAC | 1 RPM ratio (pull-down/input) |
| GATGATTGTTCTCCCAGCTGATGAATTGAAAACATCGAGTAAACAAATTTTCCTAATCTTTCTGTTCAAGCGCCATCTAC | 1.8 RPM ratio (pull-down/input) |
| GATGATTGTTCTCCCAGCTGATGAATTGGGCCCATCGAGTAAACAAATTTTCCTAATCTTTCTGTTCAAGCGCCATCTAC | 0.862 RPM ratio (pull-down/input) |
| GATGATTGTTCTCCCAGCTGATGAATTATATGGGTCGAGTAAACAAATTTTCCTAATCTTTCTGTTCAAGCGCCATCTAC | 0.903 RPM ratio (pull-down/input) |
| GATGATTGTTCTCCCAGCTGATGAATTACATCCTTCGAGTAAACAAATTTTCCTAATCTTTCTGTTCAAGCGCCATCTAC | 1.13 RPM ratio (pull-down/input) |
| GATGATTGTTCTCCCAGCTGATGAATTGCTCTCGTCGAGTAAACAAATTTTCCTAATCTTTCTGTTCAAGCGCCATCTAC | 0.971 RPM ratio (pull-down/input) |
| GATGATTGTTCTCCCAGCTGATGAATTGTTATGATCGAGTAAACAAATTTTCCTAATCTTTCTGTTCAAGCGCCATCTAC | 1.68 RPM ratio (pull-down/input) |
| GATGATTGTTCTCCCAGCTGATGAATTTATCACGTCGAGTAAACAAATTTTCCTAATCTTTCTGTTCAAGCGCCATCTAC | 1.13 RPM ratio (pull-down/input) |
| GATGATTGTTCTCCCAGCTGATGAATTGCCTTGGTCGAGTAAACAAATTTTCCTAATCTTTCTGTTCAAGCGCCATCTAC | 0.865 RPM ratio (pull-down/input) |
| GATGATTGTTCTCCCAGCTGATGAATTTCCACCTTCGAGTAAACAAATTTTCCTAATCTTTCTGTTCAAGCGCCATCTAC | 0.855 RPM ratio (pull-down/input) |
| GATGATTGTTCTCCCAGCTGATGAATTTCTACGGTCGAGTAAACAAATTTTCCTAATCTTTCTGTTCAAGCGCCATCTAC | 0.821 RPM ratio (pull-down/input) |
| GATGATTGTTCTCCCAGCTGATGAATTCGTTCAATCGAGTAAACAAATTTTCCTAATCTTTCTGTTCAAGCGCCATCTAC | 0.909 RPM ratio (pull-down/input) |
| GATGATTGTTCTCCCAGCTGATGAATTGGAGTACTCGAGTAAACAAATTTTCCTAATCTTTCTGTTCAAGCGCCATCTAC | 0.851 RPM ratio (pull-down/input) |
| GATGATTGTTCTCCCAGCTGATGAATTCTATCAATCGAGTAAACAAATTTTCCTAATCTTTCTGTTCAAGCGCCATCTAC | 1.04 RPM ratio (pull-down/input) |
| GATGATTGTTCTCCCAGCTGATGAATTGTAGCACTCGAGTAAACAAATTTTCCTAATCTTTCTGTTCAAGCGCCATCTAC | 1 RPM ratio (pull-down/input) |
| GATGATTGTTCTCCCAGCTGATGAATTTCCCTCGTCGAGTAAACAAATTTTCCTAATCTTTCTGTTCAAGCGCCATCTAC | 0.774 RPM ratio (pull-down/input) |
| GATGATTGTTCTCCCAGCTGATGAATTCAAGTACTCGAGTAAACAAATTTTCCTAATCTTTCTGTTCAAGCGCCATCTAC | 0.872 RPM ratio (pull-down/input) |
| GATGATTGTTCTCCCAGCTGATGAATTGTCCCAGTCGAGTAAACAAATTTTCCTAATCTTTCTGTTCAAGCGCCATCTAC | 0.959 RPM ratio (pull-down/input) |

Source: PMC12820563, “FoxP3 forms a head-to-head dimer in vivo and stabilizes its multimerization on adjacent microsatellites”
